Data on 76 molecules can be found in the supplement of paper PMC10600219.

SMILES strings stand for the structures. Where “and” joins values, the source holds several entries; their conditions need not be identical. Equal entries are not always repeated. Structures can show the parent of a compound that is named as a salt. Whole data set: some 2,800 compounds, median “cell viability relative to vehicle” near 0.98, cut for the lowest 2% near 0.45. This is one part of the list.

This experiment relates to NCI-H2228 alectinib-DTP. The experiment in a line: cell viability relative to vehicle (fraction of vehicle); NCI-H2228 is an ALK-positive lung cancer line and DTP means drug-tolerant persister; higher = less growth inhibition. As to conditions: 100 nM; treatment time 6 days. The gist of the method:
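Drug-tolerant persister NCI-H2228 cells, produced by 13 days in 1000 nM of a targeted drug, and their parental counterparts were seeded into 384-well plates and, the following day, given the 3114-agent TargetMol anti-cancer compound library at 100 nM or DMSO vehicle. After 6 days, the CellTiter-Glo 3D Cell Viability Assay was used to read ATP. Each entry reports viability compared with vehicle-treated cells.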
`CN1CCc2nc(C(=O)N[C@@H]3C[C@@H](C(=O)N(C)C)CC[C@@H]3NC(=O)C(=O)Nc3ccc(Cl)cn3)sc2C1` [Edoxaban Tosylate Monohydrate]: the cell viability was determined as 1.03.

`OCCn1cc(-c2ccc3c(c2)CC/C3=N\O)c(-c2ccncc2)n1` returned a cell viability of 1.14.

In turn, `CC[C@H]1OC(=O)[C@H](C)[C@@H](O[C@H]2C[C@@](C)(OC)[C@@H](O)[C@H](C)O2)[C@H](C)[C@@H](O[C@@H]2O[C@H](C)C[C@H](N(C)C)[C@H]2O)[C@](C)(O)C[C@@H](C)CN(C)[C@H](C)[C@@H](O)[C@]1(C)O` [Azithromycin dihydrate] gave a cell viability of 1.02.

Molecule `CCOC(=O)C1=C(C)NC(=S)NC1c1cccc(O)c1` (stereo unspecified) [Monastrol] had a cell viability of 1.02.

As to `CCn1c(N)c(C(=O)NC)c(=O)c2ccc(C#CC(C)(O)COC)nc21` (stereo unspecified), the cell viability was found to be 1.01.

`Cc1cc(O)c(-c2ccc(C(C)CN)cc2)c2c1[nH]c(=O)c1sccc12` (stereo unspecified) returned a cell viability of 0.15.

`CC(C)[N+]1(C)[C@@H]2CC[C@H]1C[C@@H](OC(=O)C(CO)c1ccccc1)C2` (stereo partly specified) [Ipratropium Bromide] yielded a cell viability of 1.

`CC(C)[N+]1(C)[C@@H]2CC[C@H]1C[C@@H](OC(=O)C(CO)c1ccccc1)C2` (stereo partly specified) [Ipratropium bromide monohydrate] returned a cell viability of 1.21.

For `Cc1ccc(-c2cc(C(F)(F)F)nn2-c2ccc(S(N)(=O)=O)cc2)cc1` [Celecoxib], the cell viability stood at 1.23.

Consider `Cc1ccc(NC(=O)CCCCCC(=O)Nc2ccccc2N)cc1` [Pimelic diphenylamide 106], for which the cell viability is 0.966.

In turn, `Nc1ccc(S(=O)(=O)Nc2nccs2)cc1` [Sulfathiazole] had a cell viability of 1.08.

In the case of `O=C(O)c1cccc(-c2noc(-c3ccccc3F)n2)c1` [Ataluren], the cell viability came to 0.915.

Turning to `Cc1c(-c2ccc(O)cc2)n(Cc2ccc(OCCN3CCCCCC3)cc2)c2ccc(O)cc12` [Bazedoxifene acetate], the cell viability was determined as 1.07.

With `CCc1cc2c(cc1CC)CC(NC[C@H](O)c1ccc(O)c3[nH]c(=O)ccc13)C2` [Indacaterol maleate], the cell viability was 1.

Molecule `CCc1cc2c(cc1CC)CC(NC[C@H](O)c1ccc(O)c3[nH]c(=O)ccc13)C2` [Indacaterol] displayed a cell viability of 0.931.

`O=C(O)C1=C(CSc2nnnn2CS(=O)(=O)O)CS[C@@H]2[C@H](NC(=O)[C@H](O)c3ccccc3)C(=O)N12` [Cefonicid sodium]: the cell viability was found to be 1.07.

In the case of `O=C(O)c1ccc(-c2ccc(C=C3SC(=S)N(Cc4ccccc4)C3=O)o2)cc1` [Leukadherin-1], the cell viability came out at 0.909.

The molecule `CCN(CC)CCNC(=O)c1ccc(N)cc1` [Procainamide hydrochloride] gave a cell viability of 1.16.

The molecule `NC[C@H](O)c1ccc(O)c(O)c1` [Noradrenaline bitartrate] registered a cell viability of 0.863.

In the case of `NC[C@H](O)c1ccc(O)c(O)c1` [Noradrenaline bitartrate monohydrate], the cell viability stood at 1.06.

`CCc1cnc(N2CCC(c3nc(COc4ccc(-n5cnnn5)cc4)cs3)CC2)nc1` had a cell viability of 0.83.

Consider `O=C1O[C@H]([C@@H](O)CO)C([O-])=C1O.[Na+]` [Sodium ascorbate], for which the cell viability came out at 0.928.

As to `O=[N+]([O-])c1ccc(Nc2nc(N3CCOCC3)nc(N3CCOCC3)n2)cc1`, the cell viability was found to be 1.19.

`CCOC(=O)C1=C(N)Oc2ccc(Br)cc2C1C(C#N)C(=O)OCC` (stereo unspecified) returned a cell viability of 1.06.

In turn, `Cc1cc(C(C)Nc2ccccc2)c2nc(N3CCOCC3)cc(=O)n2c1` (stereo unspecified) had a cell viability of 0.852.

`N[C@H]1CC[C@H](N[C@@H]2C[C@H]2c2ccccc2)CC1` came in with a cell viability of 0.998.

As to `COc1c(Nc2ncc(Cl)c(N[C@H]3[C@@H](C(N)=O)[C@@H]4C=C[C@H]3C4)n2)ccc2c1CC[C@@H](N1CCOCC1)CC2`, the cell viability came out at 0.958.

`CC(=O)Nc1nnc(S(N)(=O)=O)s1` [Acetazolamide]: the cell viability amounted to 0.916.

For `Nc1nc(OCc2cc(Br)cs2)c2[nH]cnc2n1` [Lomeguatrib], the cell viability was determined as 0.921.

For the molecule `Cc1cc(Nc2cc(N3CCN(C)CC3)nc(Sc3ccc(NC(=O)C4CC4)cc3)n2)n[nH]1` [Tozasertib], the cell viability is 0.762.

As to `Clc1ccc2nsnc2c1NC1=NCCN1` [Tizanidine hydrochloride], the cell viability was 1.02.

As to `CC1(C)CN(C(=O)c2ccc(-c3cccc4nc(NC(=O)C5CC5)nn34)cc2)C1` [Solcitinib], the cell viability worked out at 1.04.

For `O=C(O)CC(C(=O)O)n1c(O)c(C2=c3cc(Br)ccc3=NC2=O)sc1=S` (stereo unspecified), the cell viability stood at 1.04.

Consider `COc1ccc(-c2cc(=O)c3c(O)c(OC)c(O)cc3o2)cc1OC` [Eupatilin], for which the cell viability was determined as 1.1.

The molecule `CO/N=C(\C(=O)N[C@@H]1C(=O)N2C(C(=O)O)=C(COC(C)=O)CS[C@H]12)c1csc(N)n1` [Cefotaxime sodium] showed a cell viability of 0.897.

As to `COc1cc(CNC(=O)CCCC/C=C/C(C)C)ccc1O` [Capsaicin], the cell viability is 1.12.

Molecule `C[C@]12CC[C@@H]3c4ccc(O)cc4C[C@@H](CCCCCCCCC[S+]([O-])CCCC(F)(F)C(F)(F)F)[C@H]3[C@@H]1CC[C@@H]2O` (stereo partly specified) [Fulvestrant] displayed a cell viability of 1.18.

Regarding `C[C@H]1CC[C@@]2(OC1)O[C@H]1C[C@H]3[C@@H]4CC[C@@H]5C[C@@H](O)CC[C@]5(C)[C@H]4CC[C@]3(C)[C@H]1[C@@H]2C` [Sarsasapogenin], the cell viability came to 0.968.

With `CCS(=O)(=O)c1cccc(-c2cc(C(=O)NC3CCN(C)CC3)c(C)c3[nH]c4ncc(C)cc4c23)c1`, the cell viability was 0.755.

`O=C(/C=C/c1ccc(O)c(O)c1)O[C@H](Cc1ccc(O)c(O)c1)C(=O)O` [Rosmarinic acid] came in with a cell viability of 1.

As to `NC(=O)C1CCCc2c1[nH]c1ccc(Cl)cc21` (stereo unspecified) [Selisistat], the cell viability amounted to 1.

Molecule `CCC1(c2ccccc2)C(=O)NCNC1=O` [Primidone] came in with a cell viability of 1.08.

The molecule `COc1ccc(C(c2c[nH]c3ccccc23)c2c[nH]c3ccccc23)cc1` returned a cell viability of 1.04.

The molecule `CCCCc1oc2ccc(NS(C)(=O)=O)cc2c1C(=O)c1ccc(OCCCN(CCCC)CCCC)cc1` [Dronedarone hydrochloride] showed a cell viability of 1.13.

`COc1cc(Nc2c(C#N)cnc3cc(OCCCN4CCN(C)CC4)c(OC)cc23)c(Cl)cc1Cl` [Bosutinib]: the cell viability stood at 1.19.

Molecule `CC(=O)OC[C@H]1O[C@@H]([S-])[C@H](OC(C)=O)[C@@H](OC(C)=O)[C@@H]1OC(C)=O.CCP(CC)CC.[Au+]` [Auranofin] came in with a cell viability of 0.931.

The molecule `CC(C)=CC(=O)CCC(=O)N1CCN(Cc2cc3nc(-c4cccc5[nH]ncc45)nc(N4CCOCC4)c3s2)CC1` registered a cell viability of 0.892.

Molecule `CC(C)Oc1ccc(-c2nn([C@@H](C)c3oc4ccc(F)cc4c(=O)c3-c3cccc(F)c3)c3ncnc(N)c23)cc1F` came in with a cell viability of 0.937.

Molecule `CCCCCCCCCC(=O)CC(O)S(=O)(=O)O` (stereo unspecified) [Sodium houttuyfonate] returned a cell viability of 1.08.

`COc1cc2ncnc(Nc3cccc(Cl)c3F)c2cc1OC(=O)N1CCN(C)C[C@H]1C` registered a cell viability of 0.928.

In turn, `COc1cc2ncnc(Nc3cccc(Cl)c3F)c2cc1OC(=O)N1CCN(C)C[C@H]1C` [AZD3759 hydrochloride] registered a cell viability of 0.911.

As for `c1ccc(-c2ccc(C(c3ccccc3)n3ccnc3)cc2)cc1` (stereo unspecified) [Bifonazole], the cell viability is 0.998.

On to `COc1cc2c(cc1O)CC[n+]1cc3c(OC)c(OC)ccc3cc1-2` [Jatrorrhizine], for which the cell viability amounted to 0.914.

`CN(C)CCC(c1ccc(Br)cc1)c1ccccn1` (stereo unspecified) [Brompheniramine hydrogen maleate]: the cell viability amounted to 1.04.

Regarding `COc1cc2ncnc(Nc3cccc(Br)c3)c2cc1OC`, the cell viability is 0.798 and 0.939.

In the case of `O=C(Nc1cccnc1)c1cc(-c2ccnc(F)c2)ccc1OCc1ccccc1`, the cell viability was 0.981.

The molecule `CCCNC(=O)c1cn2ncnc(Nc3cc(C(=O)NC4CC4)ccc3C)c2c1C` showed a cell viability of 1.03.

`O=C(Oc1cccc(F)c1OC(=O)c1cccc(O)c1)c1cccc(O)c1` showed a cell viability of 1.02.

As to `CCOC(=O)N1CCC(CN(Cc2ccc(Cl)cc2)Cc2ccc([N+](=O)[O-])s2)C1` (stereo unspecified), the cell viability is 0.855.

For the molecule `CCOc1nc2cccc(C(=O)O)c2n1Cc1ccc(-c2ccccc2-c2nnn[nH]2)cc1` [Candesartan], the cell viability was determined as 0.958.

For the molecule `CC[C@H](C)[C@H](N)C(=O)O` [isoleucine], the cell viability was found to be 1.15.

As for `CC1OC2(CS1)CN1CCC2CC1` (stereo unspecified) [Cevimeline hydrochloride hemihydrate], the cell viability is 0.797.

Molecule `CC(=O)OCC1=CO[C@@H](OC(=O)CC(C)C)[C@H]2C1=C[C@H](OC(=O)CC(C)(C)OC(C)=O)[C@]21CO1` [Acevaltrate] came in with a cell viability of 1.13.

For the molecule `Nc1ncnc2c1ncn2[C@@H]1O[C@H](CO)[C@@H](O)[C@@H]1O` [Vidarabine], the cell viability stood at 0.787.

As for `COc1cn(-c2ccc(-n3cccn3)cc2F)nc(-c2ccnn2-c2ccccc2)c1=O`, the cell viability amounted to 0.994.

For the molecule `CCCc1cc(C)[nH]c(=O)c1CNC(=O)c1cc(-c2ccnc(N3CCN(C)CC3)c2)cc2c1cnn2C(C)C`, the cell viability was 1.05.

In the case of `CN1CCN(CC(=O)N2c3ccccc3C(=O)Nc3cccnc32)CC1` [Pirenzepine dihydrochloride], the cell viability was 0.882.

On to `CC(C)NC[C@@H](C(=O)N1CCN(c2ncnc3c2[C@H](C)C[C@H]3O)CC1)c1ccc(Cl)cc1` [Ipatasertib], for which the cell viability turned out to be 0.822.

Molecule `CC(C)(C)c1cc(C(C)(C)C)c(NC(=O)c2c[nH]c3ccccc3c2=O)cc1O` [Ivacaftor] came in with a cell viability of 0.899.

Turning to `C=C1C(=O)O[C@@H]2C[C@@]3(C)CCCC(=C)[C@@H]3C[C@H]12` [Isoalantolactone], the cell viability stood at 0.952.

Regarding `Cc1ccc([C@@H]2O[C@H](CO)[C@@H](O)[C@H](O)[C@H]2O)cc1Cc1ccc(-c2ccc(F)cc2)s1` [Canagliflozin], the cell viability was determined as 0.882.

Turning to `Oc1cc2c(cc1O)C(c1ccccc1)CNCC2` (stereo unspecified), the cell viability turned out to be 0.948.

Molecule `Cn1c(=O)c2c(ncn2CC2OCCO2)n(C)c1=O` [Doxofylline] registered a cell viability of 1.13.

In the case of `CC(C)(O)[C@H]1CC[C@H](Nc2ccc3ncc(-c4cccc(C(F)(F)F)c4)n3n2)CC1`, the cell viability was 0.921.

For the molecule `COCC(=O)NC/C=C/c1ccc2ncnc(Nc3ccc(Oc4ccc(C)nc4)c(C)c3)c2c1`, the cell viability turned out to be 1.08.

`CC(C)NCC(O)COc1ccc(CC(N)=O)cc1` (stereo unspecified) [Atenolol] gave a cell viability of 1.17.
